In all, about 33,000 sequences were measured (“E-score (-0.5 to 0.5)”: median about -0.017, highest 2% from about 0.3 on). The list shows a part of the results.

This assay has as its target T1, Sut1 (UniProt P53032).
T1 sequence: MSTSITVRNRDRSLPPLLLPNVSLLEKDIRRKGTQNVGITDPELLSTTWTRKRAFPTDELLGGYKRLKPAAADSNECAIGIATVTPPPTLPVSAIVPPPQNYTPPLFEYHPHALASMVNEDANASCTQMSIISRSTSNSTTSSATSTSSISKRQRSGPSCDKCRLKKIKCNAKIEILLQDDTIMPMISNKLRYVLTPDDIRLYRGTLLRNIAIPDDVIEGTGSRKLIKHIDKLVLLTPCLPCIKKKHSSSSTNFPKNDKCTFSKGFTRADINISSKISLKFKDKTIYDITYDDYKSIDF
Briefly: PBM E-score (8-mer binding enrichment) (E-score (-0.5 to 0.5)); higher = stronger / more preferred TF binding; most listed sequences are background and not binding sites. To be noted: protein concentration: 200 nM; construct: GST-full length. Summed up:
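Universal all-10-mer Agilent arrays, fresh or stripped once, were converted to double-stranded form by primer extension. GST-tagged yeast transcription factors from PURExpress in vitro transcription/translation, full-length or DNA-binding domain only, were applied at about 100-200 nM and detected with fluorescent anti-GST. After masliner normalisation, the Universal PBM Analysis Suite scored each ungapped eight-base word together with its reverse complement by E-score.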
For CATTCTCC, the “PBM E-score” value came out at 0.118.
In the case of AGCTACGA, the “PBM E-score” value was -0.177.
Next, CTCAGCCC: -0.262; AAGGCGGG: -0.3; GTCGCTCA: -0.0724.
Next, TCTGTACA: 0.0985; CCTAGTCC: 0.0512.
Next, AGATCTGA: -0.0761; ACGCGTCG: 0.174.
Turning to CGATTTTC, the “PBM E-score” value stood at 0.12.
For the sequence CGCGTGTA, the “PBM E-score” value was -0.182.
As for CCTCTGCG, the figure is -0.28; as for AGTATTGA, 0.156.
As for AAACGACA, the figure is 0.0123.
For ACGTAAAG, the “PBM E-score” value amounted to 0.0512.
As for GATAGATA, the figure is 0.275; as for GATCAGGA, -0.208; as for ACAGGACT, 0.0143.
Next, AAGATGGT: 0.102; GATTGCAC: -0.00335.
Next, CGAATTGA: 0.0462; AAGGAACT: 0.0597.
In the case of ACATATAG, the “PBM E-score” value was 0.195.
Next, TGTGAAAA: 0.107; CTCCACCC: -0.251; GACGCGCA: -0.147.
On to AATGACGC, for which the “PBM E-score” value was -0.0673.
Regarding TATCATAA, the “PBM E-score” value was 0.251.
Take CGAACCGC: the “PBM E-score” value was -0.0422.
Next, CGACGCGC: -0.0381; ATCGAGAG: -0.0241; AGTGAGCA: -0.0201.
On to AGGGGTAA, for which the “PBM E-score” value is -0.227.
As for AACCGGGG, the figure is -0.0138; as for AACACCGG, 0.301.
Next, CGAGGCGC: -0.0368.
As for CTCTGGGC, the figure is -0.223; as for GCCTTAAC, -0.238; as for CCTGTAGC, -0.126.
As for AGAGCGTA, the “PBM E-score” value was -0.104.
Take CTTGTGCA: the “PBM E-score” value is -0.0845.
As for ACCCTACC, the figure is -0.18; as for TACGATGA, 0.0667.
As to CCACTGAC, the “PBM E-score” value is -0.292.
As for GATATCAC, the figure is 0.0839; as for CGTTGCAC, 0.0224; as for AATTCGAC, -0.119.
As for ACAGTTCG, the figure is 0.183; as for CGCACCGA, -0.217; as for CCGTTTCG, 0.00854.
Next, TGGACAAA: 0.0225.
Consider CGAAGGAC, for which the “PBM E-score” value was -0.0276.
Next, ACAAGCTC: -0.00237; CACTGTCG: -0.228.
Next, GGCCAGCC: -0.235.
As to GGACTGAC, the “PBM E-score” value was -0.0915.
Next, ATCTCCAT: 0.00346.
Next, AATTTGAG: 0.0282; AATCAGAA: 0.0523.
Next, TTTGAAAA: 0.31.
In the case of ATTTATTA, the “PBM E-score” value was 0.269.
Next, GACTAGTA: -0.045.
For ACCCCCCG, the “PBM E-score” value was -0.0942.
As to ACTATTTC, the “PBM E-score” value came out at 0.193.
GCGGTCCC: the “PBM E-score” value was -0.105.
Next, TCTCTACA: 0.0562; ATGAAAGC: 0.0767.
Next, AGGCACGA: -0.139; TTAGGGAA: 0.00499; CAGAGAAC: -0.299.
Next, CCTCGATA: 0.0539.
With GCTTCCTA, the “PBM E-score” value stood at 0.11.
As for AACAAACG, the figure is 0.0823; as for AGTCTGGA, -0.129; as for GACTGCCA, -0.0599.
Next, GCCGCCCA: -0.207; ACGTGCCC: -0.239; AATGAAGG: 0.0157.
Next, AGTCAAAG: 0.135; ACGCACAA: -0.118.
Regarding CGGATTAC, the “PBM E-score” value was determined as 0.0105.
Next, CACGCCTA: -0.223; CCTAGAGC: -0.164; CGTTGGAG: -0.201.
With GTTTCACA, the “PBM E-score” value was determined as 0.0631.
Next, GGCTTTCA: 0.0417; CAGATTTC: 0.00522.
Next, ACAGTTTA: 0.136; GGGGATAC: -0.178.
Next, GAGCACCC: -0.213.
CAAGTCAC: the “PBM E-score” value is -0.0175.
Next, CGCAACGC: -2e-05.
As for GCGCACAC, the figure is -0.289; as for GTCAGGGA, -0.218; as for TACGGATA, 0.178.
Next, AGCATAAC: 0.0165; GCTCGGTA: 0.0843; ATTGACTC: 0.158.
With ATGTTCGA, the “PBM E-score” value was -0.0617.
As for ACGTCCTC, the “PBM E-score” value was -0.0827.
As for AGATACGC, the figure is -0.11; as for CAAAATAA, 0.201.
As to ATTCTACC, the “PBM E-score” value was found to be 0.0903.
As for GATGACCA, the figure is -0.0114; as for ATCTGAGA, -0.102.
Next, CACATATC: 0.0454; CGACTGGC: -0.0636; ATACAAGC: -0.00335.
Next, CAGGGTGG: -0.271.
